Reference: the BET-seq Pho4 binding data (Le et al. 2018)
The other results are listed elsewhere or left out. These are noisy estimates, calculated here from bound and input reads.

Target: T1, Pho4 (S. cerevisiae) (UniProt P07270)
T1 sequence: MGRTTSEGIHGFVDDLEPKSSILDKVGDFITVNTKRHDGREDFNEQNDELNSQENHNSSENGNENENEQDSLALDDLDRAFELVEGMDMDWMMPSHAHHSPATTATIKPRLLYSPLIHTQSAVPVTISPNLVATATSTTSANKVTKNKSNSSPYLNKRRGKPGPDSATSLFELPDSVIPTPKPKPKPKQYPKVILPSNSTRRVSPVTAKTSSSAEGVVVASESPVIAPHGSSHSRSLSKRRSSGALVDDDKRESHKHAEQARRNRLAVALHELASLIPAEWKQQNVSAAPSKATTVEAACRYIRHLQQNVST
Assay: relative binding free energy (BET-seq); higher = weaker binding
Conditions: reference: library average

Sequence	relative binding free energy
ATGGTCACGTGATGAG	0.25 kcal/mol
TGAATCACGTGTATGT	0.06 kcal/mol
GGGAGCACGTGTTTAT	-0.16 kcal/mol
ATCGGCACGTGGCATG	-0.18 kcal/mol
TTATACACGTGGAATA	0.08 kcal/mol
GGGGGCACGTGGGGTT	-0.13 kcal/mol
GTCTTCACGTGATTAA	0.47 kcal/mol
GTTGTCACGTGAGGTG	0.16 kcal/mol
GTATACACGTGTGTAT	-0.02 kcal/mol
GGGTGCACGTGAGGCA	0.19 kcal/mol
AGGAGCACGTGGGAGT	-0.12 kcal/mol
CTTTGCACGTGATGGA	0.07 kcal/mol
TTGCTCACGTGGCGGG	0.2 kcal/mol
CTTGGCACGTGTCTTT	-0.09 kcal/mol
TGTTTCACGTGCTTTA	0.17 kcal/mol
TAAGTCACGTGAGGTG	0.27 kcal/mol
TTTTTCACGTGGGAAA	0.17 kcal/mol
CGTTGCACGTGTTGGT	0.04 kcal/mol
GGTACCACGTGCTGGG	-0.14 kcal/mol
TTAGACACGTGTACGT	0.03 kcal/mol
GGTTACACGTGGTGAC	0.13 kcal/mol
AGTTGCACGTGGGGTC	-0.09 kcal/mol
GCTTTCACGTGGTTTT	0.42 kcal/mol

Sequence	relative binding free energy
CGGATCACGTGAGTAT	0.44 kcal/mol
TAAAGCACGTGATGGA	0.05 kcal/mol
TATATCACGTGTGCAT	0.08 kcal/mol
AGTGCCACGTGTTAAT	0 kcal/mol
TTATCCACGTGATGGT	0.25 kcal/mol
CGTGTCACGTGGTGGG	0.05 kcal/mol
GTCGACACGTGGGGTA	-0.11 kcal/mol
CTCGCCACGTGGGGGT	-0.29 kcal/mol
CGGGTCACGTGCGGGT	0.07 kcal/mol
TGGTTCACGTGGCTCT	0.14 kcal/mol
TAGAGCACGTGTAAGA	0.06 kcal/mol
ATGGACACGTGGGTAT	0 kcal/mol
AAAGGCACGTGAGTGG	-0.03 kcal/mol
AAGTTCACGTGTTTGT	0.31 kcal/mol
AATCGCACGTGAGTTT	0.14 kcal/mol
ACTTGCACGTGTTGTG	0.04 kcal/mol
CAAGTCACGTGGGGGA	-0.08 kcal/mol
TGTAACACGTGGGGAC	0.02 kcal/mol
GGCTACACGTGGAGGT	0.08 kcal/mol
CGTGTCACGTGTCTAG	0.14 kcal/mol
AATATCACGTGCGGTG	0.07 kcal/mol
TGGTTCACGTGTGAGC	0.29 kcal/mol
ATATTCACGTGGATGT	0.29 kcal/mol

Sequence	relative binding free energy
GTTTACACGTGTGGTA	0.11 kcal/mol
GTGTACACGTGGCCGG	-0.06 kcal/mol
TAGTGCACGTGGTATA	-0.1 kcal/mol
GTTTTCACGTGATATC	0.35 kcal/mol
GGGGTCACGTGGGTGG	0.03 kcal/mol
GCTTGCACGTGGAAGG	0.11 kcal/mol
GGAGGCACGTGTGTGG	0.03 kcal/mol
CCGTTCACGTGTTGTG	0.16 kcal/mol
GAGTCCACGTGGATTT	0.3 kcal/mol
TTCCGCACGTGTGGTG	0.02 kcal/mol
ATGGACACGTGAAGAT	0.35 kcal/mol
TGAGACACGTGCGTGT	-0.16 kcal/mol
AGTTACACGTGGCGAG	0.05 kcal/mol
GTTCTCACGTGATGTG	0.28 kcal/mol
TGTCGCACGTGAGTTT	0.08 kcal/mol
AGGGGCACGTGGCTAG	-0.13 kcal/mol
TATATCACGTGGTTGA	0 kcal/mol
GGGAGCACGTGCTGGG	-0.01 kcal/mol
CGGTTCACGTGGGAGG	0.22 kcal/mol
GGAATCACGTGGTAGA	0.21 kcal/mol
TGTTTCACGTGATTGT	0.26 kcal/mol
AGCGTCACGTGTTTTG	-0.02 kcal/mol
TTGTTCACGTGTAGTT	0.37 kcal/mol

Sequence	relative binding free energy
TGGGCCACGTGGAGTT	-0.01 kcal/mol
ATAGACACGTGTGGCG	0.12 kcal/mol
TTTAGCACGTGATGCG	0.07 kcal/mol
TAGTGCACGTGGAATA	0.14 kcal/mol
ATGCTCACGTGAGAGT	0.33 kcal/mol
ATCAACACGTGGTGTG	-0.12 kcal/mol
AGAGACACGTGGAAGT	0.19 kcal/mol
GAAGACACGTGAAGGT	0.35 kcal/mol
GAGAGCACGTGGAGGA	-0.12 kcal/mol
ATTTGCACGTGTAGAC	0.14 kcal/mol
GGAAGCACGTGGCGGA	-0.21 kcal/mol
ATTTGCACGTGTCAAG	-0.04 kcal/mol
TTAATCACGTGGCTAG	0.03 kcal/mol
GTTTGCACGTGTAGGG	0.17 kcal/mol
AGGGGCACGTGCGCTG	-0.19 kcal/mol
GTAAGCACGTGATCGT	0.05 kcal/mol
TATGTCACGTGTAGGT	0.04 kcal/mol
AGTGACACGTGGTGCG	-0.09 kcal/mol
CAGTGCACGTGTAAGT	0.08 kcal/mol
GGTTACACGTGGAATA	0.18 kcal/mol
ATGTTCACGTGGTAAA	0.3 kcal/mol
GTGCTCACGTGGGTGA	0.05 kcal/mol
TGATTCACGTGCGAGG	0.21 kcal/mol

Sequence	relative binding free energy
GGGTGCACGTGGCATG	-0.12 kcal/mol
GTGTACACGTGGGGGA	-0.09 kcal/mol
ATGTGCACGTGAGGGT	0.15 kcal/mol
CAGGTCACGTGACTGG	0.21 kcal/mol
TCATGCACGTGTAAGG	0.05 kcal/mol
GTCGTCACGTGGGAAA	0.16 kcal/mol
AGGAACACGTGATGGT	0.36 kcal/mol
TGCTGCACGTGGATAT	0 kcal/mol
AGATTCACGTGAGGTA	0.28 kcal/mol
GGTATCACGTGTATGC	0.15 kcal/mol
AGGGACACGTGACGGG	-0.03 kcal/mol
TGCCTCACGTGAGGGG	0.34 kcal/mol
AGTTGCACGTGGTCGA	0.02 kcal/mol
GGGACCACGTGATGGT	-0.04 kcal/mol
GGGTTCACGTGAGGAT	0.43 kcal/mol
TTGATCACGTGGGGGG	0.03 kcal/mol
ATGGTCACGTGTAGGT	0.13 kcal/mol
TGCCTCACGTGTGTTG	0.07 kcal/mol
AGAGGCACGTGAGTTA	0.05 kcal/mol
GTGTGCACGTGATTGG	0.14 kcal/mol
GTCTTCACGTGTGTTT	0.38 kcal/mol
GATAACACGTGGGGGT	-0.1 kcal/mol
CGAGGCACGTGTATAG	-0.1 kcal/mol
